# Results published in the supplement of paper PMC3334620.
# In all, about 33,000 sequences were measured (“E-score (-0.5 to 0.5)”: median about -0.035, highest 2% from about 0.34 on). The list shows a part of the results.
# Target: T1, Mot3 (UniProt P54785)
# T1 sequence: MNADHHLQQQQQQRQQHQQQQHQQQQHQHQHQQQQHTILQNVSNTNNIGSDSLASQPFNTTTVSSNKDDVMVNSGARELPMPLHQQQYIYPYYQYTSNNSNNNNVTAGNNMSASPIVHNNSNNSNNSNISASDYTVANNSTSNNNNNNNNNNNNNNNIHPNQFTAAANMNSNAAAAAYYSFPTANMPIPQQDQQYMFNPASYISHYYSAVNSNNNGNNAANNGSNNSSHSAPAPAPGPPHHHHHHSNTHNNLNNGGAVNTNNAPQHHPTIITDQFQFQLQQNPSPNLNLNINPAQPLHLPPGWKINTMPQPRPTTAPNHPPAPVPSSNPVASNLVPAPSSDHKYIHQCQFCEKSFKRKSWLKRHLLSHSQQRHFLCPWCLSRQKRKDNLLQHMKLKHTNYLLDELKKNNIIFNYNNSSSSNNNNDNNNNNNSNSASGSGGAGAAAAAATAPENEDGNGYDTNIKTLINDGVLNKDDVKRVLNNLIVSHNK
# Assay: PBM E-score (8-mer binding enrichment) (E-score (-0.5 to 0.5)); higher = stronger / more preferred TF binding; most listed sequences are background and not binding sites
# Details: protein concentration: 200 nM; construct: GST-full length
# Method in brief: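 Using PURExpress in vitro transcription/translation, GST-tagged yeast transcription factors were made in full-length or DNA-binding-domain form. These were applied at about 100-200 nM to double-stranded universal all-10-mer Agilent arrays, and bound protein was detected with fluorescent anti-GST. Scans were normalised with masliner before the Universal PBM Analysis Suite assigned E-scores to ungapped eight-base words pooled with their reverse complements.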
row,Sequence,PBM E-score
1,AACCAAGC,0.0446
2,CCGCCGGA,-0.275
3,GCTCACGA,-0.296
4,GATTGTCC,-0.0522
5,ACAATATC,0.0506
6,CGGTCGGA,-0.14
7,CTATGGTA,-0.182
8,ACAGTTAC,0.192
9,AACCACGC,0.0704
10,CGTAAGAA,0.0635
11,CTATTGAC,-0.031
12,ATGCTACA,0.036
13,AAGGTAGC,0.149
14,CCTGCACG,0.186
15,AGTATAGC,-0.00604
16,GATAATCC,-0.18
17,AGAGCTGC,-0.151
18,ATAGGGCG,-0.00539
19,AGCGTTCG,-0.173
20,ACAGGTGG,-0.21
21,CGCCCACA,-0.164
22,ATAAGCCA,0.025
23,CGTTTCGC,-0.0267
24,GCAACTAA,0.113
25,CGAACGCG,0.135

row,Sequence,PBM E-score
1,TCCCTCGA,-0.0649
2,GTCGTCTA,0.0515
3,CAAGAAGC,0.0859
4,AGGCCTCA,-0.247
5,AGTAAACA,0.251
6,CCTTCATA,0.209
7,GCCCCGCC,-0.163
8,CGTCGTGA,-0.157
9,ACTAACGA,0.0569
10,ACCTTTGG,-0.0679
11,GAGTTAGC,0.0386
12,GTGCGCAA,-0.148
13,AGGGGACT,-0.284
14,CGATAGAC,0.0473
15,ATTTTTGG,-0.0367
16,ACTAGTGC,0.0333
17,CACACCCA,0.0643
18,ACACTAAC,0.097
19,GTACTAAA,0.102
20,CCTCCTAC,0.0023
21,CCGACGTA,0.0868
22,GTCTCCAA,0.0716
23,CAACGGAG,-0.0789
24,CTTACAGC,0.00061
25,CCACTCAG,-0.178

row,Sequence,PBM E-score
1,CACCCGGA,0.0216
2,CCCCGGAC,-0.127
3,GGAGGGAC,-0.221
4,CAGGACTG,-0.303
5,CTTACTAC,0.0987
6,ATCGCCCC,-0.184
7,ATATGACC,-0.0291
8,CTTCATGA,-0.061
9,CTCTGTAC,0.0774
10,ATCAGAAT,-0.0439
11,CTACGTTC,0.0468
12,ACGCACCC,0.0344
13,AGCAATCA,-0.148
14,AGCCCGCC,-0.2
15,GAACGCTC,-0.164
16,GAAATACC,-0.0531
17,GAAGCCCC,-0.193
18,ATAGGAAT,-0.00642
19,CAGCGAGC,0.0674
20,AGGAGAGG,-0.307
21,AGGCAGGG,0.0595
22,CAGCATGG,0.0764
23,CATACCGC,-0.109
24,CCTTTAGC,0.0736
25,CTGCACGA,0.05

row,Sequence,PBM E-score
1,AAACGTTT,-0.0348
2,ACCGATCC,-0.281
3,AGCTCGTG,-0.111
4,GCCTCCAC,-0.0632
5,GACACAAC,0.178
6,CCACGGTA,-0.191
7,ACGCGCTG,0.184
8,AATGGGGA,-0.0448
9,GTCACCAA,0.00069
10,TGGGGGAA,-0.39
11,CGAGCCTA,0.206
12,AAGAGTTA,-0.0104
13,AATGGGCG,-0.103
14,AAACAGTA,0.0841
15,GCATATGA,-0.0183
16,ACGTGCTG,0.161
17,AAGCGCGC,0.025
18,GAAACCAA,0.0919
19,CGATACGC,-0.053
20,CCTCGATC,-0.274
21,TCCTAGAA,-0.00122
22,ATAGGGCC,-0.191
23,TCCGGGCA,-0.127
24,CCGAGTTC,0.0417
25,ACCCGTCC,-0.19

row,Sequence,PBM E-score
1,GAGGAGAC,-0.302
2,CTGTGCCC,0.314
3,AGTGTTCA,-0.133
4,ACATTGGG,-0.0882
5,ATCAGTGG,-0.18
6,GTGGGATA,-0.0921
7,CTAACGCC,-0.0647
8,ACCAGGCA,0.446
9,ATTCTACA,0.295
10,AAATTGGG,-0.0123
11,AGAGGGCC,-0.371
12,TACTTAGA,-0.0164
13,AGCCTGTC,0.0838
14,CAAAATGC,0.0533
15,AGTGCACA,-0.0321
16,AATATGGC,-0.0164
17,CCATGAGA,0.0336
18,GCTATGTA,0.341
19,AGGGTTAT,0.121
20,TAACCTGA,0.0658
21,AGCATCTG,0.013
22,ATGTTTTA,0.362
23,AGAGAGCC,-0.151
24,CCTTACAG,0.139
25,CCGCAGTC,-0.0333

row,Sequence,PBM E-score
1,AGCTCTCC,-0.0638
2,CTTTTATA,0.113
3,TACAACCA,0.238
4,ACGAATCC,0.114
5,GTTGCGGA,-0.0682
6,CAGTAACA,0.102
7,CCAAGCCC,-0.0266
8,TTGATCAA,-0.0736
9,ACGGACGA,0.00159
10,ATCTGTTA,0.127
11,CGATCCCA,-0.356
12,AAGAAACT,-0.0283
13,AGGGGGCA,-0.276
14,CCCCCTGA,-0.182
15,ACGAGCAA,-0.11
16,CCTTATCC,-0.171
17,AACATAAT,0.249
18,ATTATGGC,0.0412
19,CAAAATGA,0.0345
20,GTGGTATA,0.019
21,ACACCACG,-0.00017
22,CAATGAAC,-0.032
23,ACCATGAG,-0.189
24,CTATCGTA,0.136
25,CAATTTTC,-0.068

row,Sequence,PBM E-score
1,AGATCCTC,-0.299
2,TGAATAAA,0.234
3,GACAGTAA,-0.0736
4,ATGAAGGG,-0.0601
5,CGTTGGGA,-0.263
6,ATCGTTTA,0.125
7,AGCTGGAG,-0.107
8,ATGCGCCC,-0.075
9,CAAGCTAC,0.0688
10,AGGGCTTG,0.103
11,CGGGATAG,-0.244
12,CTACGGAG,-0.217
13,GCCAGACC,-0.203
14,CGACCACA,-0.129
15,GACGCGCC,0.135
16,ACTCGCGA,-0.101
17,AGCAGCAG,-0.16
18,GCCCAGGC,0.0913
19,ACTGCAAT,-0.0323
20,ACCACTGG,-0.217
21,CGCCGAAG,-0.21
22,ACAACGAA,0.0333
